Measurements: the RNAGym collection of RNA variant scans (doi:10.1073/pnas.2313332121)
This sample is rich in variants without activity.

B1: TPR 5TU (parent)
chain: GGAUCUUCUCGAUCUAACAAAAAAGACAAAUCUGCCACAAAGCUUGAGAGCAUCUUCGGAUGCAGAGGCGGCAGCCUUCGGUGGCGCGAUAGCGCCAACGUUCUCAACUAUGACACGCAAAACGCGUGCUCCGUUGAAUGGAGUUUAUCAUG

Variants of: B1
Experiment: polymerase ribozyme fitness, log enrichment relative to wild type (log ratio); higher = more active; in vitro selection for triplet polymerase activity
In short: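 The heterodimeric triplet polymerase ribozyme's subunits were each mutagenized into PCR-built libraries and transcribed. Every library was selected once, in triplicate, by annealing with a biotinylated primer, the partner subunit and triplets, incubating frozen at −7 °C, gel-excising extended constructs, capturing on streptavidin beads and running RT-PCR. Input and output libraries were Illumina-sequenced, with genotypes kept only at ≥10 input reads and ≥1 read per output. Fitness, from inverse-variance-weighted replicate averages, is the base-2 logarithm of genotype enrichment over wild-type enrichment.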

Variant	polymerase ribozyme fitness (log ratio)
C87G A120U	≤ -4.2
G86C C114U	-3.9
C85U A107U C125A G126C	≤ -4.2
C87U A142G	-0.623
G86U C118U A119G	-4.19
G86C C108U	≤ -4.2
C85U C131U G143U	-2.54
C85U A98C G117C	0.631
G88A A113G U144C	≤ -4.2
C85U A89U C105G	-1.55
C85U A89U C105U	0.517
G88A C118A	≤ -4.2
G86A U104G	-2.29
G86U U111A	≤ -4.2
G86U C93G	-1.28
C87U G117C U144A	-1.27
G86C A98G U111G	≤ -4.2
C85U G141C	-0.765
G86C G140U	≤ -4.2
C87A G100U	≤ -4.2
G88C A98U A142C	≤ -4.2

Variant	polymerase ribozyme fitness (log ratio)
G88C A122C	≤ -4.2
C87G A115C	≤ -4.2
G88C C114A C118A G128A G141C	≤ -4.2
C87A C103U	≤ -4.2
C85U A113G	-1.86
C87U G141A	-0.85
G88C C95U C118U	≤ -4.2
C85U A98U U151G	≤ -4.2
C85G C125A	-2.37
C87A C96A C131A	≤ -4.2
G88A	-3.75
G88C	-4.19
C87U C99G	-1.97
C87A A107G	≤ -4.2
G88C G126C	≤ -4.2
C87A A138C	≤ -4.2
G86U C87A	≤ -4.2
G86U C87U	≤ -4.2
C87A A98G G126A U145A	≤ -4.2
C87U U146G	-0.864
C87G A98G C99G	≤ -4.2

Variant	polymerase ribozyme fitness (log ratio)
G88A G92A C132G U148A	≤ -4.2
C87A C93U C103U	≤ -4.2
G86U A91C C99G U109G	≤ -4.2
C87G U144G	≤ -4.2
C85U C95G A119U	-1.89
C85U G136C	-3.29
C85U C118U A142U	-1.02
C87A A98G A115C	≤ -4.2
C87G G94C C125G U135C U151A G152A	≤ -4.2
C87G C105U U127C	-4.1
C85U G88U C105G C149U	≤ -4.2
C85U C93G	-3.83
G88C C129G	≤ -4.2
C85U A89C C93U C149U	-3.26
G86A U139G	-1.36
C85G C118A A142U	-2.93
G88A C125U G133A G140C	≤ -4.2
G86A A142C	-2.27
C87U C105U C132G	≤ -4.2
C85U U145C	-0.732
C85U A115U C118A A120G	-3.37

Variant	polymerase ribozyme fitness (log ratio)
G86A U148C	-1.5
G86C C125A G141U	≤ -4.2
C85G G133C U135C	≤ -4.2
G88C G100A A107U G141C	≤ -4.2
C85U G92U U139G	-1.29
C87A G88A	≤ -4.2
C85U C93U C131A	-2.94
C87U C123U C149G	-2.65
G86A A110U A138G	≤ -4.2
C87G G92C C105U	0.371
C87U A106G U139C	-3.59
C85G U148C	≤ -4.2
C87A G88C C116G U130A	≤ -4.2
C87A C93U A150U	≤ -4.2
C85U U127C U145A	-3.58
C87A G136A	≤ -4.2
C87A C116U C125U U134G U144A	≤ -4.2
C87A C93G C108U	≤ -4.2
C87A G133C	≤ -4.2
G86U U104A G117C	-2.37
